# Measurements taken from the supplement of paper PMC3334620.
# In all, about 33,000 sequences were measured (“E-score (-0.5 to 0.5)”: median about -0.04, highest 2% from about 0.36 on). The list shows a part of the results.
# Target: T1, Hmlalpha2 (UniProt P0CY09)
# T1 sequence: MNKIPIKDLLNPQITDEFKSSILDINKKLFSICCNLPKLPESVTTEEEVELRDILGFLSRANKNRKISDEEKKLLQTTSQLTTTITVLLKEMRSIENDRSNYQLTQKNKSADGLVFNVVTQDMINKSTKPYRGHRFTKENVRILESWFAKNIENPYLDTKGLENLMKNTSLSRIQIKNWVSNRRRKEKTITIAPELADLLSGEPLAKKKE
# Test: PBM E-score (8-mer binding enrichment) (E-score (-0.5 to 0.5)); higher = stronger / more preferred TF binding; most listed sequences are background and not binding sites
# Conditions: protein concentration: 200 nM; construct: GST-full length
# Outline: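 Detection of bound protein used fluorescent anti-GST, with scans normalised by masliner. The proteins were GST-tagged yeast transcription factors applied at about 100-200 nM to universal all-10-mer Agilent arrays made double-stranded by primer extension. Each ungapped eight-base word, pooled with its reverse complement, was scored with an E-score from the Universal PBM Analysis Suite.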
row,Sequence,PBM E-score
1,GAAATACA,0.346
2,AAGAAGAG,-0.106
3,AGTGGGCA,-0.0948
4,AGTCCACC,-0.0688
5,CTCTGGGA,-0.367
6,CGTGTCTA,0.305
7,GCGTGGAC,-0.13
8,ACCATGGA,-0.217
9,TGTACTAA,0.259
10,GCGACGCA,0.06
11,ACGCGAAC,0.0815
12,CGGGCTAC,-0.086
13,AGCTTTTA,0.136
14,CTAACTGA,-0.0961
15,GATCAATA,0.0409
16,CGTCCACG,-0.073
17,ATAATTCG,0.101
18,CAAGTAGC,0.0879
19,CTCAGCTA,-0.149
20,AGAAACTA,-0.00717
21,TATGAGAA,-0.0916
22,AGGAACAT,0.288
23,CGGTGCAA,-0.0423
24,TGCCGCAA,-0.162
25,ACCAAGTC,-0.107

row,Sequence,PBM E-score
1,CTCACCAG,-0.268
2,AATTCCGT,0.0984
3,CCCCGACA,-0.0915
4,CCTCACGC,0.0491
5,ACGTACCT,0.0217
6,TGAGCACA,0.116
7,CAATTCAC,0.222
8,ACGCATGA,0.101
9,CGGGCCGC,-0.181
10,AGCAGGCG,0.046
11,GACGTTGA,0.0484
12,CAGACGGC,-0.13
13,GCACAGGC,-0.00621
14,TACAAAAA,0.261
15,AACATTAG,0.0422
16,CGTCACAC,0.0812
17,CAGCAGGG,-0.229
18,CCCTCCAC,-0.173
19,ATCAAAAA,0.0225
20,GATATCCA,-0.00694
21,CGTGACTC,-0.168
22,ATAAGACG,-0.0879
23,TATCCTGA,-0.0757
24,ACCGCGCG,-0.0391
25,ACATCTCA,0.136

row,Sequence,PBM E-score
1,ATTACCAG,0.0501
2,ACGGGTCC,-0.15
3,ACAACTGG,-0.159
4,TTCTAGAA,0.00872
5,ACAACTCG,0.162
6,ATCGAACC,0.0125
7,ACAGTACC,-0.0457
8,CAGGCATC,-0.165
9,CCAAAAGC,-0.203
10,AGCATACC,-0.175
11,AGGATTAT,-0.137
12,GCCTTATA,0.0388
13,AATGATCT,-0.0734
14,CGGATGGA,-0.0123
15,CCTTATAA,0.14
16,CGTCAAAG,0.158
17,TCAGCGGA,-0.169
18,CGAAAACG,-0.0396
19,CATTCATC,-0.0211
20,GTGTGGGA,-0.0513
21,AATATGTG,0.262
22,ACGTACCC,-0.0113
23,CACAGTCA,-0.00427
24,AGCATGAG,0.0355
25,CGTTTCAG,-0.0639

row,Sequence,PBM E-score
1,CATTTACC,0.144
2,CGAGTATC,-0.11
3,GCGCCAGC,-0.11
4,AAATGGAT,0.12
5,ACAGGGGG,-0.118
6,CAACCAGC,-0.0722
7,ATCCCGGA,-0.195
8,GGCTGATA,-0.172
9,AGGAGCGC,-0.191
10,ACGAGCGG,-0.054
11,GGCTGCCC,-0.413
12,GAATTACC,0.107
13,GTACGGAC,-0.065
14,ATTTCTCG,0.219
15,TGCAAAAA,0.077
16,GGGGATTA,0.0616
17,ATCGTGGC,-0.0901
18,CCGGTTGA,-0.0664
19,AATAGCAT,0.133
20,AGCTCTGA,-0.226
21,AGACGACC,-0.0835
22,AAAGAAAG,-0.147
23,AATTCTCA,0.0848
24,GCTAGTCC,-0.27
25,AGCGACCT,-0.215

row,Sequence,PBM E-score
1,CTAGCTAG,0.0622
2,GAAACAAA,0.193
3,CGATGCGA,-0.0513
4,AGGTGGAG,-0.217
5,AGGGCCGC,-0.228
6,AACCAGGT,-0.18
7,ACTTTCGC,-0.0678
8,AACCGCGC,-0.0821
9,GAAGTTCA,0.0277
10,CCGCAGAG,-0.445
11,AACACGAG,0.377
12,ACTGATAT,-0.0875
13,AGCTAACC,-0.229
14,AAGCATGG,-0.112
15,ACACAAAT,0.223
16,ATTGCATA,0.0701
17,ATGATGCA,0.135
18,CGATAACA,0.298
19,CAACACTG,0.157
20,CGCTACCC,-0.355
21,AAACTGCC,-0.131
22,CGGCGATA,0.0125
23,AGTACAAA,0.161
24,CGTTCAGA,-0.175
25,ACATGTAG,0.459

row,Sequence,PBM E-score
1,GCCTGGAA,-0.215
2,ATATAGCA,0.0464
3,GCTACACC,0.0231
4,ACACGCGG,0.324
5,CAAACCAA,0.14
6,AAGTATCA,0.0434
7,ATCGTTGG,0.0955
8,AAGATTAC,0.265
9,GCGATAGA,-0.00393
10,ACCTGAGG,-0.266
11,GATCGGAC,-0.0333
12,AGGTGGTC,-0.173
13,ATATGCAC,-0.0157
14,GTTACCCA,0.0243
15,GGATTGAC,-0.0594
16,CCGCGAAA,-0.0665
17,ACTTAATA,0.212
18,AGCCGTGC,-0.0432
19,ACGCCAAA,-0.116
20,CAAAGCTA,0.0855
21,CACTATGC,0.0946
22,AGAATCGC,-0.106
23,GTCGTACA,0.163
24,CCACACGG,-0.0191
25,ATGCGGAA,-0.108

row,Sequence,PBM E-score
1,AACACTAC,0.256
2,GAGATTTA,-0.0174
3,CGGCACAG,-0.275
4,GCATTTCC,-0.105
5,GTCCAGGA,-0.133
6,TTCACCAA,-0.0146
7,AGTATCAC,-0.103
8,AATCACGG,-0.0481
9,GATCTTCC,-0.125
10,GACGATAA,-0.155
11,CTTAATGA,-0.00841
12,AAATTTAT,0.201
13,CCGACTAG,-0.381
14,AGCGGCAT,-0.0338
15,CCCGTCAC,-0.255
16,ATCGATGC,0.0612
17,AGAAGCCA,-0.146
18,ATGAGGAG,-0.187
19,GGCAATTA,0.0118
20,GAGTGACC,-0.264
21,AAGGGCAG,-0.256
22,ACAGTAAA,0.103
23,GGATTGGA,-0.193
24,CGACTTAC,-0.0878
25,GCGTAACC,0.18

row,Sequence,PBM E-score
1,ATGGTTAC,0.212
2,CGCCACCA,-0.214
3,CATATAGC,0.0334
4,CCCACCTA,-0.204
5,TATAACGA,0.176
6,ATCGGCTA,-0.0638
7,ACTAAACC,0.064
8,ACGAGTGC,-0.00337
9,CAGAATCC,-0.111
10,CCGTTGAA,-0.0872
11,TCTGGTAA,0.109
12,AGAACTCT,-0.0547
13,GTACCGAC,-0.128
14,TCATTTAA,0.0591
15,CGTGGCAA,-0.0577
16,CGATAGTC,0.13
17,CCACACCA,0.0331
18,GAGAGGCA,-0.275
19,AGGCACCG,-0.106
20,AAGTAAAC,0.283
21,GTCGCCAC,-0.316
22,AAACAAAG,0.127
23,ATGGATAC,0.154
24,AATCGCAA,-0.0873
25,CACATCTG,-0.0493

row,Sequence,PBM E-score
1,CTTTCGGC,-0.185
2,CCTTCGTA,-0.14
3,TAAGCTAA,0.0671
4,AGTACGGG,-0.205
5,ATACCGGC,-0.0372
6,CTGTTTAA,0.11
7,ATAACGGG,-0.105
8,TTGATAAA,0.292
9,GACAAGTC,0.0138
10,ATGAATCA,-0.0009
11,CCGTATCA,-0.0806
12,GCTAATAC,0.0842
13,ACATTATA,0.289
14,CTCTTCCA,-0.168
15,ATTACAAG,0.466
16,CACGGGGA,-0.168
17,GTGGCCTA,-0.245
18,CCCTTTCA,-0.0775
19,AGGACGCC,-0.0061
